From the supplement of paper PMC11876631
Substitutions are numbered along the chain they refer to. Names may count otherwise. ± gives the standard deviation of the averaged measurements. Laboratory Escherichia coli strains with one amino-acid change in an essential protein, pooled on minimal glucose agar with carbenicillin or gentamicin at twice the control MIC (plus kanamycin and chloramphenicol for the plasmids), 48 h. Fold change of barcode share against drug-free plates; higher = less susceptible. Active = above 20 in both replicates (the paper's putatively resistant). '<' = one read or none on drug, '>' = one read or none on a drug-free plate. Shares are relative, so most strains fall below 1 when a few take over. Listed are strains with at least 15 reads on both drug-free plates, and hits; most hits rest on fewer reference reads. Replicate rank correlation about 0.5. Edits are read from barcodes.

Biological target: Escherichia coli (laboratory strain)
Assay: barcode share on antibiotic plates over drug-free plates; higher = less susceptible
Procedure: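 A pool of E. coli strains, each edited to carry one amino-acid change in an essential protein, was grown for 48 h on minimal glucose agar with or without antibiotic; strain barcodes were sequenced; mean of two replicates.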

[1] = antibiotic: carbenicillin, 2× MIC (3.1 µg/mL)
[2] = antibiotic: gentamicin, 2× MIC (MIC 0.45 µg/mL)

B1: ftsH V233A (protein)
chain: MAKNLILWLVIAVVLMSVFQSFGPSESNGRKVDYSTFLQEVNNDQVREARINGREINVTKKDSNRYTTYIPVQDPKLLDNLLTKNVKVVGEPPEEPSLLASIFISWFPMLLLIGVWIFFMRQMQGGGGKGAMSFGKSKARMLTEDQIKTTFADVAGCDEAKEEVAELVEYLREPSRFQKLGGKIPKGVLMVGPPGTGKTLLAKAIAGEAKVPFFTISGSDFVEMFVGVGASRARDMFEQAKKAAPCIIFIDEIDAVGRQRGAGLGGGHDEREQTLNQMLVEMDGFEGNEGIIVIAATNRPDVLDPALLRPGRFDRQVVVGLPDVRGREQILKVHMRRVPLAPDIDAAIIARGTPGFSGADLANLVNEAALFAARGNKRVVSMVEFEKAKDKIMMGAERRSMVMTEAQKESTAYHEAGHAIIGRLVPEHDPVHKVTIIPRGRALGVTFFLPEGDAISASRQKLESQISTLYGGRLAEEIIYGPEHVSTGASNDIKVATNLARNMVTQWGFSEKLGPLLYAEEEGEVFLGRSVAKAKHMSDETARIIDQEVKALIERNYNRARQLLTDNMDILHAMKDALMKYETIDAPQIDDLMARRDVRPPAGWEEPGASNNSGDNGSPKAPRPVDEPRTPNPGNTMSEQLGDK
fold change of barcode share [1]: 0.0979 ± 0.019 | fold change of barcode share [2]: 0.0119 ± 0.009

B2: argC V151A (protein)
chain: MLNTLIVGASGYAGAELVTYVNRHPHMNITALTVSAQSNDAGKLISDLHPQLKGIVDLPLQPMSDISEFSPGVDVVFLATAHEVSHDLAPQFLEAGCVVFDLSGAFRVNDATFYEKYYGFTHQYPELLEQAAYGLAEWCGNKLKEANLIAAPGCYPTAAQLALKPLIDADLLDLNQWPVINATSGVSGAGRKAAISNSFCEVSLQPYGVFTHRHQPEIATHLGADVIFTPHLGNFPRGILETITCRLKSGVTQAQVAQVLQQAYAHKPLVRLYDKGVPALKNVVGLPFCDIGFAVQGEHLIIVATEDNLLKGAAAQAVQCANIRFGYAETQSLI
fold change of barcode share [1]: 0.394 ± 0.051 | fold change of barcode share [2]: 0.0143 ± 0.012

B3: argC V151Q (protein)
chain: B2 chain with A151Q
fold change of barcode share [1]: 5.74 ± 1.3 | fold change of barcode share [2]: < 0.01

B4: argC I149A (protein)
chain: B2 chain with I149A, A151V
fold change of barcode share [1]: 1.02 ± 0.65 | fold change of barcode share [2]: 0.0244 ± 0.012

B5: ftsI L264A (protein)
chain: MKAAAKTQKPKRQEEHANFISWRFALLCGCILLALAFLLGRVAWLQVISPDMLVKEGDMRSLRVQQVSTSRGMITDRSGRPLAVSVPVKAIWADPKEVHDAGGISVGDRWKALANALNIPLDQLSARINANPKGRFIYLARQVNPDMADYIKKLKLPGIHLREESRRYYPSGEVTAHLIGFTNVDSQGIEGVEKSFDKWLTGQPGERIVRKDRYGRVIEDISSTDSQAAHNLALSIDERLQALVYRELNNAVAFNKAESGSAVAVDVNTGEVLAMANSPSYNPNNLSGTPKEAMRNRTITDVFEPGSTVKPMVVMTALQRGVVRENSVLNTIPYRINGHEIKDVARYSELTLTGVLQKSSNVGVSKLALAMPSSALVDTYSRFGLGKATNLGLVGERSGLYPQKQRWSDIERATFSFGYGLMVTPLQLARVYATIGSYGIYRPLSITKVDPPVPGERVFPESIVRTVVHMMESVALPGGGGVKAAIKGYRIAIKTGTAKKVGPDGRYINKYIAYTAGVAPASQPRFALVVVINDPQAGKYYGGAVSAPVFGAIMGGVLRTMNIEPDALTTGDKNEFVINQGEGTGGRS
fold change of barcode share [1]: 0.416 ± 0.24 | fold change of barcode share [2]: 0.00188 ± 0.0016

B6: ftsI V468Q (protein)
chain: B5 chain with A264L, V468Q
fold change of barcode share [1]: 0.298 ± 0.035 | fold change of barcode share [2]: < 0.00439

B7: ftsI M471A (protein)
chain: B5 chain with A264L, M471A
fold change of barcode share [1]: 98.6 [active]

B8: ftsI V468D (protein)
chain: B5 chain with A264L, V468D
fold change of barcode share [1]: 0.29 ± 0.096 | fold change of barcode share [2]: 0.0195 ± 0.0043

B9: ftsI V468W (protein)
chain: B5 chain with A264L, V468W
fold change of barcode share [1]: 97.1 [active] | fold change of barcode share [2]: 0.0109 ± 0.0086

B10: ftsI V468A (protein)
chain: B5 chain with A264L, V468A
fold change of barcode share [1]: 0.337 ± 0.36 | fold change of barcode share [2]: 0.0141 ± 0.002
